Experimental data reported in the supplement of paper PMC8728848.
The list shows a part of the results.

How the values were obtained:
Assay in all cases: glycan array binding signal (z-score within array); higher = stronger binding
Conditions in all cases: glycan notation: IUPAC condensed, linker removed
[1] = biological target: Gal(b1-3)GlcNAc(b1-3)Gal(b1-4)GlcNAc(b1-3)Gal(b1-4)GlcNAc(b1-2)[Gal(b1-3)GlcNAc(b1-3)Gal(b1-4)GlcNAc(b1-3)Gal(b1-4)GlcNAc(b1-6)]Man(a1-6)[Gal(b1-3)GlcNAc(b1-3)Gal(b1-4)GlcNAc(b1-3)Gal(b1-4)GlcNAc(b1-2)Man(a1-3)]Man(b1-4)GlcNAc(b1-4)[Fuc(a1-6)]GlcNAc
How it was run: (§1)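 Glycan array binding is given as a within-array Z-score, which can be read as non-binding when negative. The arrays, 3228 of them, came from the Consortium for Functional Glycomics database and were retained only where the protein sequence was available. Z-scores were averaged across arrays of the same protein sequence at different concentrations or buffers and across linkers.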

[2] = biological target: Gal(b1-3)GlcNAc(b1-3)Gal(b1-4)GlcNAc(b1-6)[Gal(b1-3)GlcNAc(b1-3)]Gal(b1-4)Glc
How it was run: as §1

[3] = biological target: Gal(b1-3)GlcNAc(b1-3)Gal(b1-4)[Fuc(a1-3)]GlcNAc
How it was run: as §1

[4] = biological target: Gal(b1-3)GlcNAc(b1-3)Gal(b1-4)[Fuc(a1-3)]GlcNAc(b1-6)[Gal(b1-3)GlcNAc(b1-3)]Gal(b1-4)Glc
How it was run: as §1

[5] = biological target: Gal(b1-3)GlcNAc(b1-3)GalNAc
How it was run: as §1

[6] = biological target: Gal(b1-3)GlcNAc(b1-6)Gal(b1-4)GlcNAc
How it was run: as §1

[7] = biological target: Gal(b1-3)GlcNAc(b1-6)GalNAc
How it was run: as §1

[8] = biological target: Gal(b1-3)GlcNAc(b1-6)[Gal(b1-3)]GalNAc
How it was run: as §1

[9] = biological target: Gal(b1-3)GlcNAc6S
How it was run: as §1

[10] = biological target: Gal(b1-3)[Fuc(a1-4)]GlcNAc
How it was run: as §1

[11] = biological target: Gal(b1-3)[Fuc(a1-4)]GlcNAc(b1-2)Man
How it was run: as §1

[12] = biological target: Gal(b1-3)[Fuc(a1-4)]GlcNAc(b1-2)Man(a1-3)[Gal(b1-3)[Fuc(a1-4)]GlcNAc(b1-2)Man(a1-6)]Man(b1-4)GlcNAc(b1-4)[Fuc(a1-6)]GlcNAc
How it was run: as §1

[13] = biological target: Gal(b1-3)[Fuc(a1-4)]GlcNAc(b1-3)Gal(b1-3)[Fuc(a1-4)]GlcNAc
How it was run: as §1

[14] = biological target: Gal(b1-3)[Fuc(a1-4)]GlcNAc(b1-3)Gal(b1-4)[Fuc(a1-3)]GlcNAc
How it was run: as §1

[15] = biological target: Gal(b1-3)[Fuc(a1-4)]GlcNAc(b1-6)GalNAc
How it was run: as §1

[16] = biological target: Gal(b1-3)[GlcNAc(b1-6)]GalNAc
How it was run: as §1

[17] = biological target: Gal(b1-3)[Neu5Ac(a2-6)]GalNAc
How it was run: as §1

[18] = biological target: Gal(b1-3)[Neu5Ac(a2-6)]GlcNAc(b1-4)Gal(b1-4)Glc
How it was run: as §1

[19] = biological target: Gal(b1-3)[Neu5Ac(b2-6)]GalNAc
How it was run: as §1

[20] = biological target: Gal(b1-4)Gal
How it was run: as §1

[21] = biological target: Gal(b1-4)GalNAc(a1-3)[Fuc(a1-2)]Gal(b1-4)GlcNAc
How it was run: as §1

[22] = biological target: Gal(b1-4)GalNAc(b1-3)[Fuc(a1-2)]Gal(b1-4)GlcNAc
How it was run: as §1

[23] = biological target: Gal(b1-4)Glc
How it was run: as §1

[24] = biological target: Gal(b1-4)Glc6S
How it was run: as §1

[25] = biological target: Gal(b1-4)GlcNAc
How it was run: as §1

[26] = biological target: Gal(b1-4)GlcNAc(a1-6)Gal(b1-4)GlcNAc
How it was run: as §1

[27] = biological target: Gal(b1-4)GlcNAc(b1-2)Man
How it was run: as §1

[28] = biological target: Gal(b1-4)GlcNAc(b1-2)Man(a1-3)Man(b1-4)GlcNAc(b1-4)GlcNAc
How it was run: as §1

[29] = biological target: Gal(b1-4)GlcNAc(b1-2)Man(a1-3)[Gal(b1-4)GlcNAc(b1-2)Man(a1-6)]Man(b1-4)GlcNAc(b1-4)GlcNAc
How it was run: as §1

[30] = biological target: Gal(b1-4)GlcNAc(b1-2)Man(a1-3)[Gal(b1-4)GlcNAc(b1-2)Man(a1-6)]Man(b1-4)GlcNAc(b1-4)[Fuc(a1-6)]GlcNAc
How it was run: as §1

[31] = biological target: Gal(b1-4)GlcNAc(b1-2)Man(a1-3)[Gal(b1-4)GlcNAc(b1-2)Man(a1-6)][Gal(b1-4)GlcNAc(b1-4)]Man(b1-4)GlcNAc(b1-4)[Fuc(a1-6)]GlcNAc
How it was run: as §1

[32] = biological target: Gal(b1-4)GlcNAc(b1-2)Man(a1-3)[Gal(b1-4)GlcNAc(b1-2)Man(a1-6)][GlcNAc(b1-4)]Man(b1-4)GlcNAc(b1-4)[Fuc(a1-6)]GlcNAc
How it was run: as §1

[33] = biological target: Gal(b1-4)GlcNAc(b1-2)Man(a1-3)[GlcNAc(b1-2)Man(a1-6)]Man(b1-4)GlcNAc(b1-4)GlcNAc
How it was run: as §1

[34] = biological target: Gal(b1-4)GlcNAc(b1-2)Man(a1-3)[GlcNAc(b1-4)][Gal(b1-4)GlcNAc(b1-2)Man(a1-6)]Man(b1-4)GlcNAc(b1-4)GlcNAc
How it was run: as §1

[35] = biological target: Gal(b1-4)GlcNAc(b1-2)Man(a1-3)[Man(a1-6)]Man(b1-4)GlcNAc(b1-4)GlcNAc
How it was run: as §1

[36] = biological target: Gal(b1-4)GlcNAc(b1-2)Man(a1-6)Man(b1-4)GlcNAc(b1-4)GlcNAc
How it was run: as §1

[37] = biological target: Gal(b1-4)GlcNAc(b1-2)Man(a1-6)[GlcNAc(b1-2)Man(a1-3)]Man(b1-4)GlcNAc(b1-4)GlcNAc
How it was run: as §1

[38] = biological target: Gal(b1-4)GlcNAc(b1-2)Man(a1-6)[Man(a1-3)]Man(b1-4)GlcNAc(b1-4)GlcNAc
How it was run: as §1

B1: Pbx1 (Cryptococcus neoformans) (protein)
chain: ATTKCLVSGDQDSINNALALGGEGTTVTLCPGSVHRLNSSIIFTAPSQTLTTLGNPKDRNRAMLVVDGEDLACAIRADCKQCSHAMIRSLVIDGNRPQLLRIPKGDALIEVGNAESQTVRDCKLYEPRGWSALHFREGDERQCRFGHIVDNEIGPCGEEWDDEYDSMDETKPLWGNPRADGISLACKDSIVERNVVYDATDGAIVLFGSAGSTVKNNHVYARTRVILGGINLVDYEPWDGDYTNVKVHHNHLYALGRYFKVGIVIGPASWSDDTESVVHSASVTDNEFSGGYWGYGIVVASAKNFEVLRNKVIWDGEQGVARFSGVPGSRCPKAPENGKPTAFLINRGSAKGIFQDDFVNGEVQHIICLNPDQDPPYKPWRFRDSPEAIAAKQAENPTANSAFDSRIAEALVSYQMSLLNSMDAMTQKVEHLTNPIVDDALPFVHEHERAEADKKARQEASRKEKESGNKDVDMLNVKVEELEKSGRRLKKALDGLKSDFEGLSGRLKKSADENKPIIETIFVTSQNLLLGATSQQN
glycan array binding signal (z-score) [1]: 15 | glycan array binding signal (z-score) [2]: -0.554 | glycan array binding signal (z-score) [3]: 0.149 | glycan array binding signal (z-score) [4]: -0.611 | glycan array binding signal (z-score) [5]: -0.34 | glycan array binding signal (z-score) [6]: -0.652 | glycan array binding signal (z-score) [7]: 0.171 | glycan array binding signal (z-score) [8]: -0.269 | glycan array binding signal (z-score) [9]: -0.086 | glycan array binding signal (z-score) [10]: 0.151 | glycan array binding signal (z-score) [11]: 0.029 | glycan array binding signal (z-score) [12]: 0.053 | glycan array binding signal (z-score) [13]: -0.758 | glycan array binding signal (z-score) [14]: -0.146 | glycan array binding signal (z-score) [15]: 0.227 | glycan array binding signal (z-score) [16]: -0.612 | glycan array binding signal (z-score) [17]: -0.198 | glycan array binding signal (z-score) [18]: 0.35 | glycan array binding signal (z-score) [19]: -0.695 | glycan array binding signal (z-score) [20]: -0.237 | glycan array binding signal (z-score) [21]: -0.606 | glycan array binding signal (z-score) [22]: -0.466 | glycan array binding signal (z-score) [23]: -0.509 | glycan array binding signal (z-score) [24]: 0.019 | glycan array binding signal (z-score) [25]: 0.033 | glycan array binding signal (z-score) [26]: -0.547 | glycan array binding signal (z-score) [27]: -0.238 | glycan array binding signal (z-score) [28]: -0.195 | glycan array binding signal (z-score) [29]: -0.54 | glycan array binding signal (z-score) [30]: 1.94 | glycan array binding signal (z-score) [31]: 0.493 | glycan array binding signal (z-score) [32]: -0.574 | glycan array binding signal (z-score) [33]: 0.357 | glycan array binding signal (z-score) [34]: 0.182 | glycan array binding signal (z-score) [35]: -0.459 | glycan array binding signal (z-score) [36]: -0.527 | glycan array binding signal (z-score) [37]: 0.149 | glycan array binding signal (z-score) [38]: -0.055
